Test in all cases: Primary Screen for Target Class Profiling of Small Molecule Inhibitors of Methyltransferases
Experiment [1] concerns the target Glycine N-methyltransferase (Homo sapiens) (UniProt Q14749). The following applies: purified enzyme, MTase-Glo SAH luminescence; measured here: GNMT inhibition; at 40 µM; stronger effect = lower value. A digest of the protocol:
(§1)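 Each enzyme was reacted with SAM and its substrate, with compounds tested once at 40 uM; SAH formed was read by MTase-Glo luminescence.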

In experiment [2] the target is Guanidinoacetate N-methyltransferase (Homo sapiens) (UniProt Q14353). As to conditions: purified enzyme, MTase-Glo SAH luminescence; measured here: GAMT inhibition; at 40 µM; stronger effect = lower value. A digest of the protocol: as §1
Experiment [3] addresses Histamine N-methyltransferase (Homo sapiens) (UniProt P50135). As to conditions: purified enzyme, MTase-Glo SAH luminescence; measured here: HNMT inhibition; at 40 µM; stronger effect = lower value. A digest of the protocol: as §1
Experiment [4] addresses Nicotinamide N-methyltransferase (Homo sapiens) (UniProt P40261). As to conditions: purified enzyme, MTase-Glo SAH luminescence; measured here: NNMT inhibition; at 40 µM; stronger effect = lower value. In outline: as §1
The target in experiment [5] is Phenylethanolamine N-methyltransferase (Homo sapiens) (UniProt P11086). As to conditions: purified enzyme, MTase-Glo SAH luminescence; measured here: PNMT inhibition; at 40 µM; stronger effect = lower value. In outline:
as §1

Some of the results follow. Shown are side measurements of this screen, not its main read-out; they come without a call.
% is set by controls: 0 for no effect and ±100 for the full control effect.

With `O=C(CCn1ccc2cc(S(=O)(=O)N3CCCCC3)ccc21)NCc1ccccc1`, the activity change, negative = inhibition in experiment [1] amounted to 4.39%; in experiment [2], 2.48%; in experiment [3] it was 8.26%; in experiment [4], 1.08%; in experiment [5], 3.33%.

Take `COCCc1noc([C@@H]2CC(F)(F)CN2C(=O)c2ccoc2)n1`: the activity change, negative = inhibition is -0.348% in experiment [1]; 3.82% in experiment [2]; 1% in experiment [3]; 4.38% in experiment [4]; 2.6% in experiment [5].

On to `COC(=O)c1ncn2c1C(=O)N(C1CC1)C(C)(C(=O)NCc1ccccc1)C2` (stereo not given), for which the activity change, negative = inhibition was found to be 1.27% in experiment [1]; 0% in experiment [2]; 10.9% in experiment [3]; 5.73% in experiment [4]; 5.23% in experiment [5].

For the compound `CSCCC(NC(=O)c1ccccc1NC(=O)c1ccccc1)C(=O)O` (stereo not given), the activity change, negative = inhibition in experiment [1] is 0.676%; in experiment [2], 6.52%; in experiment [3], 2.44%; in experiment [4] it was 11%; in experiment [5] it was -2.56%.

Consider `Cc1ccc(Cn2c(=O)c3ccccc3n3c(CCC(=O)NCCc4ccc(Cl)cc4)nnc23)cc1`, for which the activity change, negative = inhibition is -6.72% in experiment [1]; 0% in experiment [2]; 0.692% in experiment [3]; 0.451% in experiment [4]; -7.87% in experiment [5].

In the case of `COc1ccc(-c2ccc3nnc(CNC(=O)CCc4ccccc4)n3n2)cc1`, the activity change, negative = inhibition in experiment [1] was -7.25%; in experiment [2], -8.44%; in experiment [3], -5.54%; in experiment [4], -14.6%; in experiment [5], 1.9%.

For the compound `O=S(=O)(c1ccccc1)c1nnn2c1nc(NC1CCN(Cc3ccccc3)CC1)c1ccccc12`, the activity change, negative = inhibition was 6.54% in experiment [1]; 5.55% in experiment [2]; -3.23% in experiment [3]; 4.96% in experiment [4]; 4.53% in experiment [5].

Consider `COCc1ncc(C)n1C1CCN(C(=O)Cc2cccc(F)c2)CC1`, for which the activity change, negative = inhibition in experiment [1] was 0.799%; in experiment [2] it was 1.51%; in experiment [3], 1.72%; in experiment [4] it was 1.16%; in experiment [5], -4.11%.

Turning to `CC1=C[C@@H](CNC(=O)CCCC(=O)O)[C@H](C(C)C)C[C@H]1Cc1nc2ccccc2n1C`, the activity change, negative = inhibition was -5% in experiment [1]; -1.67% in experiment [2]; -3.46% in experiment [3]; -10% in experiment [4]; -3.71% in experiment [5].

Take `COc1ccccc1CNC(=O)c1ccc2c(=O)n(-c3cccc(F)c3)c3nnc(C)n3c2c1`: the activity change, negative = inhibition is 2.78% in experiment [1]; 4.22% in experiment [2]; -2.16% in experiment [3]; 5.83% in experiment [4]; 0.681% in experiment [5].

Take `Cc1nc(CC(=O)NCc2cccnc2N2CCOCC2)cs1`: the activity change, negative = inhibition came out at 0.049% in experiment [1]; 1.55% in experiment [2]; 2.84% in experiment [3]; 2.83% in experiment [4]; 2.33% in experiment [5].

In the case of `COCC(=O)N[C@@H]1CN(Cc2ccc(C)s2)CC[C@@H]1c1n[nH]c(C)n1`, the activity change, negative = inhibition is -4.32% in experiment [1]; -3.67% in experiment [2]; -0.019% in experiment [3]; -6.91% in experiment [4]; 8.2% in experiment [5].

`FC(F)(F)c1ccc(CN2CCCC3(CC(Cc4ccccc4)=NO3)C2)cc1` (stereo not given): the activity change, negative = inhibition in experiment [1] is -5.26%; in experiment [2], -6.38%; in experiment [3], -0.343%; in experiment [4] it was -14.8%; in experiment [5], 0.381%.

On to `O=C(OC[C@@]1(O)CO[C@@H](O[C@H]2[C@H](Oc3ccc(O)cc3)O[C@H](CO)[C@@H](O)[C@@H]2O)[C@@H]1O)c1ccc(O)cc1`, for which the activity change, negative = inhibition in experiment [1] was 1.49%; in experiment [2] it was 1.47%; in experiment [3] it was 4.52%; in experiment [4], -8.68%; in experiment [5], -2.71%.

With `CCOc1ccc(CN2C(=O)c3nc4ccccc4n3CC2(C)C(=O)NC2CCCCCC2)cc1` (stereo not given), the activity change, negative = inhibition is -13.7% in experiment [1]; 0.602% in experiment [2]; -3.55% in experiment [3]; -15.9% in experiment [4]; -5.08% in experiment [5].

As for `COCCN1C(=O)c2ccc(-c3ccco3)n2CC1(C)C(=O)NC1CCC(C)CC1` (stereo not given), the activity change, negative = inhibition worked out at 3.71% in experiment [1]; 0% in experiment [2]; 8.91% in experiment [3]; 6.7% in experiment [4]; 3.56% in experiment [5].

In the case of `OCc1nc(C2CCNC2)no1` (stereo not given), the activity change, negative = inhibition is -3.03% in experiment [1]; -0.527% in experiment [2]; 0.342% in experiment [3]; -1.36% in experiment [4]; 16% in experiment [5].

Values taken from PubChem BioAssay AID1745853 (National Center for Advancing Translational Sciences (NCATS), 2022).
